Assay results from the BET-seq Pho4 binding data (Le et al. 2018).
The list shows a part of the results. The energies were worked out here from pooled read counts, against the library average; single values are noisy.

These sequences were tested against T1, Pho4 (S. cerevisiae) (UniProt P07270) (assay: relative binding free energy (BET-seq); higher = weaker binding). Conditions: reference: library average.
T1 sequence: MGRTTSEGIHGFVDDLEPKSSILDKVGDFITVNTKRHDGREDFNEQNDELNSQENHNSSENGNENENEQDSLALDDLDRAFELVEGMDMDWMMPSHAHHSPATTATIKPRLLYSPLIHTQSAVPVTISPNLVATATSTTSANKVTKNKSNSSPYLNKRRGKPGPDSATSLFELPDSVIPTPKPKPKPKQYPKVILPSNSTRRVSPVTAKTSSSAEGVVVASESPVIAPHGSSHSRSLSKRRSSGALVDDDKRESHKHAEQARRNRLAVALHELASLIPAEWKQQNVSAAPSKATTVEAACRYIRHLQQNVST

Row | Sequence | relative binding free energy
1 | AGCGCCACGTGGGGGT | -0.25 kcal/mol
2 | GATGTCACGTGATGCT | 0.19 kcal/mol
3 | GGACTCACGTGTTGTG | 0.2 kcal/mol
4 | AGGGCCACGTGATGGC | 0.12 kcal/mol
5 | GTTTTCACGTGATTTG | 0.37 kcal/mol
6 | GATGTCACGTGAGGGC | 0.41 kcal/mol
7 | ATAGACACGTGGGGAA | -0.09 kcal/mol
8 | AGGAGCACGTGGGTTA | -0.18 kcal/mol
9 | TAATACACGTGGTTGC | -0.03 kcal/mol
10 | AGCTGCACGTGTGAGC | 0.19 kcal/mol
11 | GAGGGCACGTGTTTAG | 0.02 kcal/mol
12 | GCTTTCACGTGGTCGA | 0.23 kcal/mol
13 | ATTGGCACGTGGAGTA | -0.24 kcal/mol
14 | TTTTTCACGTGGATAA | 0.3 kcal/mol
15 | TTCCTCACGTGGGGTT | 0.05 kcal/mol
16 | TGGATCACGTGTTTTA | 0.38 kcal/mol
17 | GTTAGCACGTGCGTGC | -0.12 kcal/mol
18 | AAGGACACGTGGTAGC | 0.15 kcal/mol
19 | GACAGCACGTGTTTGG | 0.02 kcal/mol
20 | TGGGCCACGTGTGAGT | -0.11 kcal/mol
21 | AATAGCACGTGTATAG | -0.1 kcal/mol
22 | GAATGCACGTGTGATG | 0.07 kcal/mol
23 | CACGGCACGTGGGAGG | -0.1 kcal/mol
24 | AGTAACACGTGTAGGT | 0.04 kcal/mol
25 | TTATTCACGTGCTATA | 0.17 kcal/mol

Row | Sequence | relative binding free energy
26 | AAGTCCACGTGGGAGG | 0.08 kcal/mol
27 | ATAGGCACGTGTTGTA | -0.24 kcal/mol
28 | TTTCACACGTGTGGCG | 0.24 kcal/mol
29 | ATATTCACGTGATATT | 0.26 kcal/mol
30 | TGAGCCACGTGGGAGG | -0.11 kcal/mol
31 | GCATGCACGTGTGCGG | -0.02 kcal/mol
32 | GGTTGCACGTGGGGGG | -0.07 kcal/mol
33 | TATGTCACGTGGGGTT | -0.02 kcal/mol
34 | ACTTACACGTGGTGGT | -0.1 kcal/mol
35 | AGTGACACGTGGTTAT | 0.01 kcal/mol
36 | TTGGGCACGTGGACCT | -0.12 kcal/mol
37 | GTTAACACGTGAGGGT | 0.21 kcal/mol
38 | TTGATCACGTGGGCGA | -0.03 kcal/mol
39 | CATTTCACGTGATTTT | 0.36 kcal/mol
40 | TGCTACACGTGATTTT | 0.37 kcal/mol
41 | TGGTTCACGTGTTATA | 0.25 kcal/mol
42 | ATGCACACGTGGAGTA | 0.16 kcal/mol
43 | GTTATCACGTGGGATG | 0.13 kcal/mol
44 | TTGGGCACGTGAAGCT | 0.15 kcal/mol
45 | GGGGACACGTGGTAAA | -0.03 kcal/mol
46 | CGCGGCACGTGTTTTG | 0.05 kcal/mol
47 | TTGTTCACGTGTTGGT | 0.31 kcal/mol
48 | AGACTCACGTGGTGTG | -0.16 kcal/mol
49 | GAATTCACGTGTTGCG | 0.3 kcal/mol
50 | CAGTGCACGTGTGGGG | -0.05 kcal/mol

Row | Sequence | relative binding free energy
51 | TTGATCACGTGATCTA | 0.25 kcal/mol
52 | GGTTGCACGTGCGGTT | 0.14 kcal/mol
53 | TGTGTCACGTGGTGGG | 0.1 kcal/mol
54 | TGGTCCACGTGGAGGT | 0.1 kcal/mol
55 | AAAAGCACGTGTGTGG | -0.11 kcal/mol
56 | GTTTGCACGTGTCGGA | -0.02 kcal/mol
57 | AGTTACACGTGCGTAT | -0.04 kcal/mol
58 | TTGATCACGTGTTTAG | 0.07 kcal/mol
59 | ACTCGCACGTGGGTGG | -0.29 kcal/mol
60 | ATAGGCACGTGCGGAG | -0.2 kcal/mol
61 | GGAGTCACGTGTAGCA | 0.25 kcal/mol
62 | CCTTTCACGTGGTTGG | 0.28 kcal/mol
63 | TAATTCACGTGGAGTT | 0.27 kcal/mol
64 | AGAATCACGTGAGAGG | 0.41 kcal/mol
65 | TAAGTCACGTGAGGGG | 0.28 kcal/mol
66 | CAGCGCACGTGTGGTG | 0.01 kcal/mol
67 | TGGATCACGTGCGCGA | 0.21 kcal/mol
68 | TCAAGCACGTGGGTGA | -0.21 kcal/mol
69 | TATCGCACGTGGGGGA | -0.16 kcal/mol
70 | CTTTTCACGTGGCTAT | 0.11 kcal/mol
71 | CTATGCACGTGTGTTG | -0.14 kcal/mol
72 | GCTAGCACGTGGGGAG | -0.34 kcal/mol
73 | TTGTACACGTGGGTAA | 0 kcal/mol
74 | GATTGCACGTGGATCG | 0.19 kcal/mol
75 | CTGTGCACGTGCGAGG | -0.02 kcal/mol

Row | Sequence | relative binding free energy
76 | GGGATCACGTGTCTAG | 0.33 kcal/mol
77 | TTATGCACGTGGGTTC | -0.21 kcal/mol
78 | AGGTGCACGTGGCGTC | -0.12 kcal/mol
79 | TTGGGCACGTGTAACG | 0.05 kcal/mol
80 | TATAGCACGTGTCTGT | -0.06 kcal/mol
81 | TTCGGCACGTGCTTAT | -0.07 kcal/mol
82 | TGACGCACGTGGGGTA | -0.28 kcal/mol
83 | TGATCCACGTGAGTGT | 0.24 kcal/mol
84 | TTGCGCACGTGAGGGA | -0.03 kcal/mol
85 | ATTTTCACGTGTTTAC | 0.19 kcal/mol
86 | GGAAGCACGTGAAGAT | 0.35 kcal/mol
87 | CAAGTCACGTGGTATT | -0.03 kcal/mol
88 | GTGGACACGTGCGGTA | 0.09 kcal/mol
89 | AGGCACACGTGAGGTG | 0.28 kcal/mol
90 | AGTCTCACGTGGTCGA | 0.38 kcal/mol
91 | TTGCTCACGTGTGGAT | 0.46 kcal/mol
92 | TAATTCACGTGGTTTG | 0.14 kcal/mol
93 | CTGAGCACGTGGTAGG | -0.21 kcal/mol
94 | AAGTGCACGTGTATCG | 0.03 kcal/mol
95 | TGGCTCACGTGAGTTT | 0.33 kcal/mol
96 | TAGTACACGTGGAATT | 0.21 kcal/mol
97 | TGTGACACGTGTAACG | 0.16 kcal/mol
98 | GTCGGCACGTGGAAGG | -0.05 kcal/mol
99 | TATTGCACGTGGCAGG | -0.1 kcal/mol
100 | AGGAGCACGTGTGTGT | -0.05 kcal/mol

Row | Sequence | relative binding free energy
101 | AGGGACACGTGATGTT | 0.1 kcal/mol
102 | ACGTGCACGTGTGTCT | -0.07 kcal/mol
103 | AATGTCACGTGACGGT | 0.16 kcal/mol
104 | TGTTGCACGTGGTGTT | -0.07 kcal/mol
105 | GATTTCACGTGCAGTG | 0.43 kcal/mol
106 | GGGAACACGTGGGGCG | -0.1 kcal/mol
107 | TATGCCACGTGTTTTT | 0.09 kcal/mol
108 | CGGGTCACGTGGTTAT | 0.08 kcal/mol
109 | TGTATCACGTGCTTGA | -0.03 kcal/mol
110 | GGGTTCACGTGTTATG | 0.43 kcal/mol
111 | GGTTCCACGTGTTAGA | 0.2 kcal/mol
112 | TGTATCACGTGAAGTC | 0.28 kcal/mol
113 | TATGGCACGTGTGAGG | 0.09 kcal/mol
114 | CTGTGCACGTGGGGTG | -0.2 kcal/mol
115 | GTTAGCACGTGAACGG | 0.24 kcal/mol
116 | TGTCGCACGTGGCTGT | -0.11 kcal/mol
117 | CGTTTCACGTGTTGAT | 0.18 kcal/mol
118 | GTTAGCACGTGTCTGT | -0.04 kcal/mol
119 | ATGTACACGTGGTATA | 0.04 kcal/mol
120 | GGGAGCACGTGTGTCA | -0.08 kcal/mol
121 | TTGGTCACGTGACGAG | 0.19 kcal/mol
122 | TTTTACACGTGAGATA | 0.22 kcal/mol
123 | AAGGTCACGTGTTTGG | 0.14 kcal/mol
124 | AGTGTCACGTGATGCG | 0.22 kcal/mol
125 | TTGTACACGTGGGCGA | -0.14 kcal/mol

Row | Sequence | relative binding free energy
126 | TTGGTCACGTGGGTCT | 0.01 kcal/mol
127 | TTTAACACGTGGTCAT | -0.05 kcal/mol
128 | TATGTCACGTGGGGCC | -0.03 kcal/mol
129 | GGACGCACGTGAGGTG | 0.24 kcal/mol
130 | TAATGCACGTGTTGCA | -0.05 kcal/mol
131 | TTAGACACGTGGGGGA | -0.2 kcal/mol
132 | TTAAGCACGTGGTTGT | -0.03 kcal/mol
133 | TTGTGCACGTGTACAG | -0.05 kcal/mol
134 | TGGAGCACGTGATAGT | 0.09 kcal/mol
135 | AGAGGCACGTGTTTGG | -0.1 kcal/mol
136 | CACGGCACGTGTAGGG | -0.06 kcal/mol
137 | AGGAGCACGTGCGGCG | -0.06 kcal/mol
138 | GGTTCCACGTGGAAAG | 0.2 kcal/mol
139 | GTAGTCACGTGAGAGC | 0.31 kcal/mol
140 | TTTAGCACGTGTACAT | -0.02 kcal/mol
141 | ATCTTCACGTGTCGGG | 0.31 kcal/mol
142 | ATTTACACGTGGTTGA | 0.05 kcal/mol
143 | GTTGGCACGTGAGAGA | 0.09 kcal/mol
144 | TCGATCACGTGGTGGA | 0.12 kcal/mol
145 | AGGAGCACGTGATGGG | 0.05 kcal/mol
146 | GTATTCACGTGTTATG | 0.3 kcal/mol
